Not every detail of the peptide structures is certain; ends, links or a residue may be inferred. Numbered stars: 1 amine (or outer) side, 2 acyl side, 3 side chain; on linkers, the order of the positions; unused ones are H or OH. Bridge positions count the residues as written; N and C are the ends. Square brackets hold non-standard residues; d marks the D form. Peptide text beside a SMILES is read from it. * marks the point of attachment. C20 diacid = O=C(O)CCCCCCCCCCCCCCCCCCC(=O)*; γGlu = O=C(O)[C@H](CCC(=O)[*:2])N[*:1]; βAsp = O=C(O)[C@H](CC(=O)[*:2])N[*:1]; Hyp = O=C(O)[C@@H]1C[C@@H](O)CN1; Inp = O=C(O)C1CCNCC1
Assay: Freeze-thaw stability of derivatives (freeze-thaw yield by liquid chromatography)
Type: physicochemical
Conditions: for Dissolution property: appearance after dissolution at 0.2 mg/ml in 20 mM phosphate buffer solution (PB) (pH 7.0); for Freeze storage property: appearance after overnight storage at −20° C. and thawing to room temperature, 0.2 mg/ml in 20 mM PB (pH 7.0); for Freeze storage yield: concentration of polypeptide after freezing and thawing / concentration before, by liquid chromatography, −20° C. overnight
Procedure, shortened: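 Lyophilised peptide derivative dissolved at 0.2 mg/ml in 20 mM phosphate buffer, pH 7.0, frozen overnight at −20° C, then thawed at room temperature. Peptide concentration before and after freeze-thaw measured by reversed-phase HPLC on centrifuged supernatant; yield = post-thaw/pre-thaw concentration.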

What does the source list for `CC[C@H](C)[C@H](NC(=O)[C@@H]1CCCN1C(=O)CNC(=O)[C@H](CC(C)C)NC(=O)[C@H](CC(N)=O)NC(=O)[C@H](CC(N)=O)NC(=O)[C@H](CO)NC(=O)[C@H](CO)NC(=O)[C@H](Cc1c[nH]cn1)NC(=O)[C@H](CCCNC(=N)N)NC(=O)[C@H](CC(C)C)NC(=O)[C@H](Cc1ccccc1)NC(=O)[C@H](CC(=O)O)NC(=O)[C@H](C)NC(=O)[C@H](CC(C)C)NC(=O)[C@H](CCCNC(=N)N)NC(=O)[C@H](CCC(N)=O)NC(=O)[C@@H](NC(=O)[C@H](C)NC(=O)[C@@H]1CSSC[C@H](NC(=O)[C@H](CCCCN)NC(=O)[C@H](CC(=O)O)NC(=O)CCCCCCCCCCCCCCCCCCC(=O)O)C(=O)N[C@@H](CC(N)=O)C(=O)N[C@@H]([C@@H](C)O)C(=O)N[C@@H](C)C(=O)N[C@@H]([C@@H](C)O)C(=O)N1)[C@@H](C)O)C(=O)N[C@@H](CC(C)C)C(=O)N1CCC[C@H]1C(=O)N1CCC[C@H]1C(=O)N[C@H](C(=O)N[C@@H](CC(N)=O)C(=O)N[C@H](C(=O)NCC(=O)N[C@@H](CO)C(=O)N[C@@H](CC(N)=O)C(=O)N[C@H](C(=O)N1C[C@H](O)C[C@H]1C(N)=O)[C@@H](C)O)C(C)C)[C@@H](C)O` [PD131] ({C20 diacid}-DKCNTATCATQRLADFLRHSSNNLGPILPPTNVGSNT[Hyp]-NH2; disulfide 3-8)?
Dissolution property: Clear; Freeze storage property: Clear; Freeze storage yield: 108.14%

What does the source list for `CC[C@H](C)[C@H](NC(=O)[C@@H]1CCCN1C(=O)CNC(=O)[C@H](CC(C)C)NC(=O)[C@H](CC(N)=O)NC(=O)[C@H](CC(N)=O)NC(=O)[C@H](CO)NC(=O)[C@H](CO)NC(=O)[C@H](Cc1c[nH]cn1)NC(=O)[C@H](CCCNC(=N)N)NC(=O)[C@H](CC(C)C)NC(=O)[C@H](Cc1ccccc1)NC(=O)[C@H](CC(=O)O)NC(=O)[C@H](C)NC(=O)[C@H](CC(C)C)NC(=O)[C@H](CCCNC(=N)N)NC(=O)[C@H](CCC(N)=O)NC(=O)[C@@H](NC(=O)[C@H](C)NC(=O)[C@@H]1CSSC[C@H](NC(=O)[C@H](CCCCN)NC(=O)C[C@H](NC(=O)CCCCCCCCCCCCCCCCCCC(=O)O)C(=O)O)C(=O)N[C@@H](CC(N)=O)C(=O)N[C@@H]([C@@H](C)O)C(=O)N[C@@H](C)C(=O)N[C@@H]([C@@H](C)O)C(=O)N1)[C@@H](C)O)C(=O)N[C@@H](CC(C)C)C(=O)N1CCC[C@H]1C(=O)N1CCC[C@H]1C(=O)N[C@H](C(=O)N[C@@H](CC(N)=O)C(=O)N[C@H](C(=O)NCC(=O)N[C@@H](CO)C(=O)N[C@@H](CC(N)=O)C(=O)N[C@H](C(=O)N1C[C@H](O)C[C@H]1C(N)=O)[C@@H](C)O)C(C)C)[C@@H](C)O` [PD132] ({C20 diacid-βAsp}-KCNTATCATQRLADFLRHSSNNLGPILPPTNVGSNT[Hyp]-NH2; disulfide 2-7)?
Dissolution property: Clear; Freeze storage property: Clear; Freeze storage yield: 101.01%

Which Dissolution property does the source give for `CC[C@H](C)[C@H](NC(=O)[C@@H]1CCCN1C(=O)CNC(=O)[C@H](CC(C)C)NC(=O)[C@H](CC(N)=O)NC(=O)[C@H](CC(N)=O)NC(=O)[C@H](CO)NC(=O)[C@H](CO)NC(=O)[C@H](Cc1c[nH]cn1)NC(=O)[C@H](CCCNC(=N)N)NC(=O)[C@H](CC(C)C)NC(=O)[C@H](Cc1ccccc1)NC(=O)[C@H](CC(=O)O)NC(=O)[C@H](C)NC(=O)[C@H](CC(C)C)NC(=O)[C@H](CCCNC(=N)N)NC(=O)[C@H](CCC(N)=O)NC(=O)[C@@H](NC(=O)[C@H](C)NC(=O)[C@@H]1CSSC[C@H](NC(=O)[C@H](CCCCN)NC(=O)C2CCN(C(=O)CCCCCCCCCCCCCCCCCCC(=O)O)CC2)C(=O)N[C@@H](CC(N)=O)C(=O)N[C@@H]([C@@H](C)O)C(=O)N[C@@H](C)C(=O)N[C@@H]([C@@H](C)O)C(=O)N1)[C@@H](C)O)C(=O)N[C@@H](CC(C)C)C(=O)N1CCC[C@H]1C(=O)N1CCC[C@H]1C(=O)N[C@H](C(=O)N[C@@H](CC(N)=O)C(=O)N[C@H](C(=O)NCC(=O)N[C@@H](CO)C(=O)N[C@@H](CC(N)=O)C(=O)N[C@H](C(=O)N1C[C@H](O)C[C@H]1C(N)=O)[C@@H](C)O)C(C)C)[C@@H](C)O` [PD134] ({C20 diacid-Inp}-KCNTATCATQRLADFLRHSSNNLGPILPPTNVGSNT[Hyp]-NH2; disulfide 2-7) here?
Its Dissolution property is “Clear”.

What about the Freeze storage property of the same compound?
Its Freeze storage property is “Clear”.

And the Freeze storage yield?
The Freeze storage yield was 101.39%.

With `CC[C@H](C)[C@H](NC(=O)[C@@H]1CCCN1C(=O)[C@H](CCCCN)NC(=O)[C@H](CC(C)C)NC(=O)[C@H](CC(N)=O)NC(=O)[C@H](CC(N)=O)NC(=O)[C@H](CO)NC(=O)[C@H](CO)NC(=O)[C@H](Cc1c[nH]cn1)NC(=O)[C@H](CCCNC(=N)N)NC(=O)[C@H](CC(C)C)NC(=O)[C@H](Cc1ccccc1)NC(=O)[C@H](CC(=O)O)NC(=O)[C@H](C)NC(=O)[C@H](CC(C)C)NC(=O)[C@H](CCCNC(=N)N)NC(=O)[C@H](CCC(N)=O)NC(=O)[C@@H](NC(=O)[C@H](C)NC(=O)[C@@H]1CSSC[C@H](NC(=O)[C@H](Cc2c[nH]cn2)NC(=O)CC[C@H](NC(=O)CCCCCCCCCCCCCCCCCCC(=O)O)C(=O)O)C(=O)N[C@@H](CC(N)=O)C(=O)N[C@@H]([C@@H](C)O)C(=O)N[C@@H](C)C(=O)N[C@@H]([C@@H](C)O)C(=O)N1)[C@@H](C)O)C(=O)N[C@@H](CC(C)C)C(=O)N1CCC[C@H]1C(=O)N1CCC[C@H]1C(=O)N[C@H](C(=O)N[C@@H](CC(N)=O)C(=O)N[C@H](C(=O)NCC(=O)N[C@@H](CO)C(=O)N[C@@H](CC(N)=O)C(=O)N[C@H](C(=O)N1C[C@H](O)C[C@H]1C(N)=O)[C@@H](C)O)C(C)C)[C@@H](C)O` [PD141] ({C20 diacid-γGlu}-HCNTATCATQRLADFLRHSSNNLKPILPPTNVGSNT[Hyp]-NH2; disulfide 2-7) as the compound, how does the Dissolution property read?
The Dissolution property was “Clear”.

What about the Freeze storage property of the same compound?
The Freeze storage property was “Clear”.

And the Freeze storage yield?
The Freeze storage yield was 96.57%.

For `CC[C@H](C)[C@H](NC(=O)[C@@H]1CCCN1C(=O)[C@H](CCCCN)NC(=O)[C@H](CC(C)C)NC(=O)[C@H](CC(N)=O)NC(=O)[C@H](CC(N)=O)NC(=O)[C@H](CO)NC(=O)[C@H](CO)NC(=O)[C@H](Cc1c[nH]cn1)NC(=O)[C@H](CCCNC(=N)N)NC(=O)[C@H](CC(C)C)NC(=O)[C@H](Cc1ccccc1)NC(=O)[C@H](CC(=O)O)NC(=O)[C@H](C)NC(=O)[C@H](CC(C)C)NC(=O)[C@H](CCCNC(=N)N)NC(=O)[C@H](CCC(N)=O)NC(=O)[C@@H](NC(=O)[C@H](C)NC(=O)[C@@H]1CSSC[C@H](NC(=O)[C@H](CCCCN)NC(=O)CCCCCCCCCCCCCCCCCCC(=O)O)C(=O)N[C@@H](CC(N)=O)C(=O)N[C@@H]([C@@H](C)O)C(=O)N[C@@H](C)C(=O)N[C@@H]([C@@H](C)O)C(=O)N1)[C@@H](C)O)C(=O)N[C@@H](CC(C)C)C(=O)N1CCC[C@H]1C(=O)N1CCC[C@H]1C(=O)N[C@H](C(=O)N[C@@H](CC(N)=O)C(=O)N[C@H](C(=O)NCC(=O)N[C@@H](CO)C(=O)N[C@@H](CC(N)=O)C(=O)N[C@H](C(=O)N1C[C@H](O)C[C@H]1C(N)=O)[C@@H](C)O)C(C)C)[C@@H](C)O` [PD142] ({C20 diacid}-KCNTATCATQRLADFLRHSSNNLKPILPPTNVGSNT[Hyp]-NH2; disulfide 2-7), which Dissolution property is on record?
Its Dissolution property is “Clear”.

And the Freeze storage property?
Its Freeze storage property is “Clear”.

What about the Freeze storage yield of the same compound?
The Freeze storage yield was 101.09%.

For `CC[C@H](C)[C@H](NC(=O)[C@@H]1CCCN1C(=O)[C@H](CCCCN)NC(=O)[C@H](CC(C)C)NC(=O)[C@H](CC(N)=O)NC(=O)[C@H](CC(N)=O)NC(=O)[C@H](CO)NC(=O)[C@H](CO)NC(=O)[C@H](Cc1c[nH]cn1)NC(=O)[C@H](CCCNC(=N)N)NC(=O)[C@H](CC(C)C)NC(=O)[C@H](Cc1ccccc1)NC(=O)[C@H](CC(=O)O)NC(=O)[C@H](C)NC(=O)[C@H](CC(C)C)NC(=O)[C@H](CCCNC(=N)N)NC(=O)[C@H](CCC(N)=O)NC(=O)[C@@H](NC(=O)[C@H](C)NC(=O)[C@@H]1CSSC[C@H](NC(=O)[C@H](CCCCN)NC(=O)[C@H](CCC(=O)O)NC(=O)CCCCCCCCCCCCCCCCCCC(=O)O)C(=O)N[C@@H](CC(N)=O)C(=O)N[C@@H]([C@@H](C)O)C(=O)N[C@@H](C)C(=O)N[C@@H]([C@@H](C)O)C(=O)N1)[C@@H](C)O)C(=O)N[C@@H](CC(C)C)C(=O)N1CCC[C@H]1C(=O)N1CCC[C@H]1C(=O)N[C@H](C(=O)N[C@@H](CC(N)=O)C(=O)N[C@H](C(=O)NCC(=O)N[C@@H](CO)C(=O)N[C@@H](CC(N)=O)C(=O)N[C@H](C(=O)N1C[C@H](O)C[C@H]1C(N)=O)[C@@H](C)O)C(C)C)[C@@H](C)O` [PD143] ({C20 diacid}-EKCNTATCATQRLADFLRHSSNNLKPILPPTNVGSNT[Hyp]-NH2; disulfide 3-8), which Dissolution property is on record?
The Dissolution property was “Clear”.

And the Freeze storage property?
Its Freeze storage property is “Clear”.

What about the Freeze storage yield of the same compound?
The Freeze storage yield was 118.11%.

From patent publication US20260166128A1, “HUMAN AMYLIN ANALOG, AND DERIVATIVE THEREOF AND USE THEREOF” (priority 2022, published 2026)
